# From the antibiotic and cytotoxicity screens of Wong et al. (2023)
# Some of the results follow.
# Experiments:
# HSkMC = human skeletal muscle cells; experiment: cytotoxicity call (relative viability < 0.9); conditions: 10 µM
# HepG2 = experiment: cytotoxicity call (relative viability < 0.9); conditions: 10 µM
# S. aureus RN4220 = experiment: growth inhibition call (relative growth <= 0.2); conditions: 50 µM
SMILES,cytotoxicity call (HSkMC),cytotoxicity call (HepG2),growth inhibition call (S. aureus RN4220)
C[C@H]1CCCCO[C@@H](CN(C)Cc2ccccc2)[C@@H](C)CN([C@@H](C)CO)C(=O)c2cc(NC(=O)Nc3cccc4ccccc34)ccc2O1,active,active,inactive
OCCc1ccc(O)c(O[C@H]2O[C@@H](CO)[C@@H](O)[C@@H](O)[C@@H]2O)c1,inactive,inactive,inactive
C[C@@H]1CN([C@H](C)CO)C(=O)c2cc(NC(=O)Nc3ccc(F)cc3)ccc2O[C@@H](C)CCCCO[C@@H]1CN(C)Cc1ccc(C(F)(F)F)cc1,inactive,inactive,inactive
C[C@H](CO)N1C[C@H](C)[C@@H](CN(C)S(=O)(=O)c2cn(C)cn2)Oc2ccc(NS(=O)(=O)c3ccc(Cl)cc3)cc2C1=O,inactive,inactive,inactive
O=C(CC1CC1)NCc1cnc2n1CCNCC2,inactive,inactive,inactive
C[C@@H]1CN([C@@H](C)CO)C(=O)c2cc(NC(=O)c3ccncc3)ccc2O[C@@H](C)CCCCO[C@H]1CN(C)Cc1ccc(C(F)(F)F)cc1,inactive,inactive,inactive
COc1ccc2c(c1)c(-c1cccc(C)c1)nn2-c1ccccc1,inactive,inactive,inactive
O=C(O)[C@@H]1CCCC[C@@H]1C(=O)N1CCc2ccccc2[C@H]1CN1C(=O)c2ccccc2C1=O.O=C(O)[C@H]1CCCC[C@@H]1C(=O)N1CCc2ccccc2[C@H]1CN1C(=O)c2ccccc2C1=O,inactive,inactive,inactive
C[C@H]1CN([C@@H](C)CO)C(=O)CCCn2cc(nn2)CO[C@H]1CN(C)C(=O)Nc1cccc(C(F)(F)F)c1,inactive,inactive,inactive
COCCOC(=O)N1C(=O)[C@@]2(c3cc(C#CC4=CCCCC4)ccc31)[C@H](c1ccc(OCCO)cc1)N1[C@H](c3ccccc3)[C@H](c3ccccc3)OC(=O)[C@H]1[C@@H]2C(=O)NC[C@H](O)c1ccccc1,inactive,inactive,inactive
COc1ccc([Si](C)(C)[C@H]2[C@H](CC(=O)N3Cc4ccccc4C[C@H]3CO)O[C@@]3(C(=O)N(Cc4cccc(N5C(=O)c6cccc7cccc5c67)c4)c4ccccc43)[C@@H]2C)cc1,inactive,active,inactive
Cc1ccc(S(=O)(=O)Nc2ccc3c(c2)CC(=O)N([C@H](C)CO)C[C@H](C)[C@H](CN(C)C(=O)NC(C)C)O3)cc1,inactive,inactive,inactive
Cn1cc(N2C[C@]3(CCN(S(C)(=O)=O)C3)CC2=O)cn1,inactive,inactive,inactive
C[C@@H]1CN([C@H](C)CO)C(=O)Cc2cc(NC(=O)Nc3ccc(C(F)(F)F)cc3)ccc2O[C@H]1CN(C)C(=O)Nc1cccc2ccccc12,inactive,inactive,inactive
CC(C)NC(=O)Nc1ccc2c(c1)C(=O)N([C@H](C)CO)C[C@H](C)[C@H](CN(C)Cc1ccc(Oc3ccccc3)cc1)O2,inactive,inactive,inactive
Cc1ccc(S(=O)(=O)N(C)C[C@H]2OCCCC[C@H](C)Oc3ccc(NC(=O)NC4CCCCC4)cc3C(=O)N([C@H](C)CO)C[C@@H]2C)cc1,inactive,inactive,inactive
CC(C)NC(=O)N(C)C[C@H]1Oc2ccc(NC(=O)CCN3CCOCC3)cc2C(=O)N([C@@H](C)CO)C[C@@H]1C,inactive,inactive,inactive
C[C@H]1CN([C@@H](C)CO)C(=O)c2cccc(NC(=O)Nc3ccc(C(F)(F)F)cc3)c2O[C@@H]1CN(C)S(=O)(=O)c1ccc(Cl)cc1,active,inactive,inactive
Cc1ccc(S(=O)(=O)Nc2cccc3c2O[C@@H](CN(C)Cc2ccc(-c4ccccc4)cc2)[C@@H](C)CN([C@H](C)CO)C3=O)cc1,inactive,active,inactive
COc1ccc(-c2oc3cc(OC)c(OC)c(OC)c3c(=O)c2OC)cc1OC,inactive,active,inactive
O=C(CN1C(=O)COCC1=O)N1CCOCC1,inactive,inactive,inactive
C/C=C/c1ccc([C@@H]2[C@H](CO)N(S(=O)(=O)CC)C23CN(C(=O)CN(C)C)C3)cc1,inactive,inactive,inactive
C[C@H]1CN([C@@H](C)CO)C(=O)c2ccccc2-c2ccccc2CO[C@@H]1CN(C)Cc1cccc(C(F)(F)F)c1,inactive,inactive,inactive
C[C@@H]1CN([C@@H](C)CO)C(=O)c2cccc(NC(=O)c3ccncc3)c2O[C@@H]1CN(C)C(=O)Nc1ccc2c(c1)OCO2,inactive,inactive,inactive
